Tests used:
mouse albumin [1] = molecular target: T1, mouse albumin (mouse, UniProt P07724 25-608); assay: ELISA on coated albumin
swine albumin [2] = molecular target: T2, swine albumin (swine, UniProt P08835 25-607); assay: ELISA on coated albumin
T2 construct: also called Porcine albumin

human albumin [3] = molecular target: T3, human albumin (human, UniProt P02768 25-609); assay: ELISA on coated albumin
sheep albumin [4] = molecular target: T4, sheep albumin (sheep, UniProt P14639 25-607); assay: ELISA on coated albumin
bovine albumin [5] = molecular target: T5, bovine albumin (bovine, UniProt P02769 25-607); assay: ELISA on coated albumin
chicken ovalbumin [6] = molecular target: T6, chicken ovalbumin (chicken, UniProt P01012 2-386); assay: ELISA on coated albumin
T6 construct: also called Chicken Alb
T6 sequence (looked up): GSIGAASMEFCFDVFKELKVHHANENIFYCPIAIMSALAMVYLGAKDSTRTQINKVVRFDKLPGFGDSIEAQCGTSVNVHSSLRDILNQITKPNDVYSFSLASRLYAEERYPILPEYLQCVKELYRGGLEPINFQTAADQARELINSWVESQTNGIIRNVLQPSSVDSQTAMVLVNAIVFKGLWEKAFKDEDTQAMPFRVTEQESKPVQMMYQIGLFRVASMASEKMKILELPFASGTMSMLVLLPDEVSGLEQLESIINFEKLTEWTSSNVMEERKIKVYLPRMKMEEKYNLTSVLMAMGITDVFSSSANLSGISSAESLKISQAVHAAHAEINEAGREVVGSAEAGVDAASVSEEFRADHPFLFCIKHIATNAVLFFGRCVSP

horse albumin = molecular target: T7, horse albumin (horse, UniProt P35747 25-607); assay: ELISA on coated albumin
T7 construct: also called Equine albumin

dog albumin [7] = molecular target: T8, dog albumin (dog, UniProt P49822 25-608); assay: ELISA on coated albumin
T8 construct: also called Canine albumin

cat albumin [8] = molecular target: T9, cat albumin (cat, UniProt P49064 25-608); assay: ELISA on cat albumin captured from serum
T9 construct: also called Feline albumin

mouse albumin [9] = molecular target: T1, mouse albumin; assay: ELISA; A450 below 0.2 at highest SDA concentration
swine albumin [10] = molecular target: T2, swine albumin; assay: ELISA; A450 below 0.2 at highest SDA concentration
cat albumin [11] = molecular target: T9, cat albumin; assay: ELISA; A450 below 0.2 at highest SDA concentration
human albumin [12] = molecular target: T3, human albumin; assay: ELISA; A450 below 0.2 at highest SDA concentration
sheep albumin [13] = molecular target: T4, sheep albumin; assay: ELISA; A450 below 0.2 at highest SDA concentration
bovine albumin [14] = molecular target: T5, bovine albumin; assay: ELISA; A450 below 0.2 at highest SDA concentration
chicken ovalbumin [15] = molecular target: T6, chicken ovalbumin; assay: ELISA; A450 below 0.2 at highest SDA concentration
dog albumin [16] = molecular target: T8, dog albumin; assay: ELISA; A450 below 0.2 at highest SDA concentration

B1: SVA07L (VHH, not shown: small tags and cut ends)
VHH: QVQLQQSGGGLVQAGDSLRLSCAASGRAFNYYTMGWFRQAPGKEREFVAKIYWDGGSTIYADSVKGRFTISIDNAKNTVYLQMNSLKPEDTAVYYCAADPSFYPFRPKYWGQGTQVTVSS
maximal absorbance value at 450 nm (mouse albumin [1]): 0.079 A450
maximal absorbance value at 450 nm (swine albumin [2]): 0.084 A450
maximal absorbance value at 450 nm (human albumin [3]): 0.06 A450
maximal absorbance value at 450 nm (sheep albumin [4]): 0.055 A450
maximal absorbance value at 450 nm (bovine albumin [5]): 0.056 A450
maximal absorbance value at 450 nm (chicken ovalbumin [6]): 0.057 A450
SDA Effective Concentration resulting in A450 nm = 0.2 (horse albumin): 238 ng/mL
maximal absorbance value at 450 nm (horse albumin): 0.55 A450
maximal absorbance value at 450 nm (dog albumin [7]): 0.056 A450
maximal absorbance value at 450 nm (cat albumin [8]): 0.086 A450
binding result (mouse albumin [9]): no binding (tested: 1000 ng/ml)
binding result (swine albumin [10]): no binding (tested: 1000 ng/ml)
binding result (cat albumin [11]): no binding (tested: 1000 ng/ml)
binding result (human albumin [12]): no binding (tested: 1000 ng/ml)
binding result (sheep albumin [13]): no binding (tested: 1000 ng/ml)
binding result (bovine albumin [14]): no binding (tested: 1000 ng/ml)
binding result (chicken ovalbumin [15]): no binding (tested: 1000 ng/ml)
binding result (dog albumin [16]): no binding (tested: 1000 ng/ml)
